Results reported in publication PMC4265154, “A reversible Renilla luciferase protein complementation assay for rapid identification of protein–protein interactions reveals the existence of an interaction network involved in xyloglucan biosynthesis in the plant Golgi apparatus” (Journal of Experimental Botany, 2014).
No constants are given. Whether binding was seen depends on the method and setting. In cells and extracts the contact can be indirect. Some results given as binding are weak or reduced against the parent protein; the word gives no strength. Where a sequence is shown, tags or fusion partners need not be part of it.

Key:
Assay in all cases: split reporter; Rluc-PCA: proteins with C-terminal hRluc[F1]-HA and hRluc[F2]-FLAG co-expressed with p19 in N. benthamiana leaves for 72 h (Agrobacterium OD600 0.2 each, p19 0.05); pooled leaf discs macerated in 0.5 M NaCl, 0.1 M potassium phosphate pH 7.4, 1 mM EDTA, 0.02% BSA, protease inhibitors; 10 uM coelenterazine-h, luminescence 30 s; compared with p19 alone
[1] = molecular target: T1, XXT2 fused to hRluc fragment [F1] or [F2] (Arabidopsis thaliana) (UniProt O22775)
T1 sequence: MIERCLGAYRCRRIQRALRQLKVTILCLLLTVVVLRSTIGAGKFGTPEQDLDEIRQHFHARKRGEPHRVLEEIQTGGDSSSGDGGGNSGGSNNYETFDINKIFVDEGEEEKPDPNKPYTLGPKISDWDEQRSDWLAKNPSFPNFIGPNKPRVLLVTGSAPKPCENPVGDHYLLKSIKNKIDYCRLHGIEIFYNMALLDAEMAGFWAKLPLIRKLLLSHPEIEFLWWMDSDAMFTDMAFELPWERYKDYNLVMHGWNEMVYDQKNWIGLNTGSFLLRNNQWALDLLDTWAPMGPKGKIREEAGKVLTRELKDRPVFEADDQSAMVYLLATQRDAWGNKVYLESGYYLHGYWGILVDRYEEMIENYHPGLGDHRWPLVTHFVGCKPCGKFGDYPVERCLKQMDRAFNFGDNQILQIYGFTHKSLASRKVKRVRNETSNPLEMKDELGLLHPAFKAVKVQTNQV

[2] = molecular target: XYLO…1 (XXT1) fused to hRluc fragment [F1] or [F2] (Arabidopsis thaliana) (UniProt Q9LZJ3)
[3] = molecular target: T2, XXT5 fused to hRluc fragment [F1] or [F2] (Arabidopsis thaliana) (UniProt Q9CA75)
T2 sequence: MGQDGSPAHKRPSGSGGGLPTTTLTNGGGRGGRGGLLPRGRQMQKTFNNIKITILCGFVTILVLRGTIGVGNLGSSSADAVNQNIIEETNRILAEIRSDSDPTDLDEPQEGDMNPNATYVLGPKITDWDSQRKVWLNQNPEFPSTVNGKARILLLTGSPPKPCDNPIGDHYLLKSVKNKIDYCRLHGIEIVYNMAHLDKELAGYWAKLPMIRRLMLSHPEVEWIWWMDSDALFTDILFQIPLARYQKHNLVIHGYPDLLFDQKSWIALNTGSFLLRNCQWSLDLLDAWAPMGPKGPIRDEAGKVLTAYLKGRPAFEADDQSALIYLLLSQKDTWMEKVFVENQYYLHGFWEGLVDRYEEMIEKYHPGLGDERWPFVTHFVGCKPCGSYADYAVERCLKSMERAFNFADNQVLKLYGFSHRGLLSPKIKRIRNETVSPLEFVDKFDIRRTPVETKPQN

[4] = molecular target: T3, FUCO…1 (FUT1) fused to hRluc fragment [F1] or [F2] (Arabidopsis thaliana) (UniProt Q9SWH5)
T3 sequence: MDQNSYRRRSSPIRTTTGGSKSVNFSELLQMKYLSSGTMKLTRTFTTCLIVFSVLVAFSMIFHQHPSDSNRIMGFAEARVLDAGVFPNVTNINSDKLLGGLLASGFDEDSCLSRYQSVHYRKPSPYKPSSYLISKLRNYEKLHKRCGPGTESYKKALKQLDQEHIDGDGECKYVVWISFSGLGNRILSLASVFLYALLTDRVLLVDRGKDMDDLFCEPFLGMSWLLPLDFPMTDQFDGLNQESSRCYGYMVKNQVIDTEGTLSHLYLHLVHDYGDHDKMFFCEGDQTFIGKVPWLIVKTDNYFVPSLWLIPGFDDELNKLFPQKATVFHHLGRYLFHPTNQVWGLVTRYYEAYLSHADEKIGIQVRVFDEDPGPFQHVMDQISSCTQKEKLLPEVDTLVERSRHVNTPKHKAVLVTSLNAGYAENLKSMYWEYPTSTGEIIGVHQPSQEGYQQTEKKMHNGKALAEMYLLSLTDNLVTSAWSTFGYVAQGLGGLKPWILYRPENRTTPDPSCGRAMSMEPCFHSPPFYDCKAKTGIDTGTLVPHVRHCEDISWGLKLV

B1: XYLO…1 (XXT1) fused to hRluc fragment [F1] or [F2] (protein, UniProt Q9LZJ3 1-460)
chain: MIEKCIGAHRFRRLQRFMRQGKVTILCLVLTVIVLRGTIGAGKFGTPEKDIEEIREHFFYTRKRGEPHRVLVEVSSKTTSSEDGGNGGNSYETFDINKLFVDEGDEEKSRDRTNKPYSLGPKISDWDEQRRDWLKQNPSFPNFVAPNKPRVLLVTGSAPKPCENPVGDHYLLKSIKNKIDYCRIHGIEIFYNMALLDAEMAGFWAKLPLIRKLLLSHPEIEFLWWMDSDAMFTDMVFELPWERYKDYNLVMHGWNEMVYDQKNWIGLNTGSFLLRNSQWSLDLLDAWAPMGPKGKIREEAGKVLTRELKDRPAFEADDQSAMVYLLATEREKWGGKVYLESGYYLHGYWGILVDRYEEMIENHKPGFGDHRWPLVTHFVGCKPCGKFGDYPVERCLRQMDRAFNFGDNQILQMYGFTHKSLGSRRVKPTRNQTDRPLDAKDEFGLLHPPFKAAKLSTTTT
- binding [1]: binds
- binding [2]: no binding
- binding [3]: binds
- binding [4]: no binding
